# Measurements: the supplement of paper PMC11417369
# ± gives the standard deviation of the averaged measurements. This is one part of the list.
# System: PfAP2-G AP2 domain (GST-tagged)
# Test: gcPBM binding intensity (ln(normalized median fluorescence intensity)); higher = stronger DNA binding
# Summary of the method: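 The binding buffer was 1× PBS containing 1% milk, 0.2 mg/ml BSA, 0.5% salmon testes DNA and 0.03% Triton X-100. In it, GST-tagged P. falciparum DNA-binding domains expressed in E. coli were applied for 1 h to an Agilent 4 × 180k array of primer-extended double-stranded 36-bp intergenic genomic probes plus negative controls. Binding intensity, read with Alexa488 anti-GST antibody and a 488 nm scan, is the highest Masliner-normalised natural-log median intensity across replicate spots of either probe orientation.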
row,Sequence,gcPBM binding intensity (ln)
1,AATTAAAAAATTATCACACATATATATATATATATA [CACACA_site5789],9.95 ± 0.42
2,ATGTCTTTGAAAAAAAGTACTTAAAATTATAAAAAT [XGTACX_site147],11.4 ± 0.66
3,ACTGTCGTTTTAAAGAGTACATAAAATATTAAATTA [XGTACX_site3589],11.3 ± 0.86
4,TTCTTTTAAAGGTATACATGCGCATGGATTTTTCAT [TGCATGCA_site223],10.2 ± 0.18
5,AAGTAAATATAATAAGGTACACATAAATAAATAAAT [XGTACX_site1740],11.2 ± 0.86
6,ATTCTGAATGTTATGCGTACATATTAATCCTATTTA [XGTACX_site1216],11.5 ± 0.93
7,TAAGGTTCATTAAAGTGTACACATAAATACCGTAAC [XGTACX_site8212],11.6 ± 0.95
8,TGTAATAATTATTGCACGCACACAAAAACCTATAGA [CACACA_site2932],10.7 ± 0.4
9,TCCAAATAAATATATTGTACAGAATTATTGATACCT [XGTACX_site327],10.8 ± 0.42
10,ATGTTGTTATAAAGAGTGCAACGTATATGTATCCTT [GTGCAC_site9935],10.2 ± 0.057
11,AGAAAAGGAAAATAAACATGCAAAAATAATATTAAA [TGCATGCA_site337],9.77 ± 0.28
12,GGAAACACGATATATACACACATATTTATATTTATA [CACACA_site6250],10.01 ± 0.057
13,AAAGATAATATATGCACACATATAAATATATAAATA [CACACA_site3477],9.9 ± 0.35
14,TATATCATAAAAAATTGTACATATATATATTATATA [XGTACX_site6726],11 ± 0.69
15,TGATGGGACATAAATATTGAGATGATCATAAGATAA [TGCATGCA_negctrl_site276],10.2 ± 0.21
16,AAAAAAAAAAAAAGTACACACTTTTGCGTACAAGTA [CACACA_site5672],11.9 ± 0.83
17,TATTTATTATATAAATGTACATAATATATGTATGTC [XGTACX_site2815],10.9 ± 0.57
18,ATATAAAATGAACATAGTACTTTTTATATATTTTAA [XGTACX_site7461],10.9 ± 0.66
19,TACCTATACCTATACACACACACACGGAAATAAATA [CACACA_site6750],10.3 ± 0.41
20,AATTTTATAAAAAGTAGTACATATCAAACACCTTGA [XGTACX_site2297],11.6 ± 1.1
21,AAGAAAAAAAAAAAAAAAAAAAAAAAAAATTTATGA [TGCATGCA_negctrl_site294],9.46 ± 0.12
22,CAGTTATTTTAATGTGGTACACAATTTTAAAATTAT [XGTACX_site8571],11.5 ± 0.93

row,Sequence,gcPBM binding intensity (ln)
1,TGAAATGATATATAAACACACATATATAAATATGTA [CACACA_site7616],9.5 ± 0.057
2,AAATATAATTTGCGATGTACACATATATATTTATTT [XGTACX_site1568],11.3 ± 0.79
3,TTATGATTATAACGTTTTGACATTAGGCATATATAT [CACACA_negctrl_site1396],10 ± 0.32
4,TGACTTTTTTTTTTTTTTTTTTTTTTTTATCTTTTT [CACACA_negctrl_site481],9.62
5,GACACTTTGAAGGGTACATGCAGAAAAAAAAAAAAA [TGCATGCA_site89],11.2 ± 1.1
6,TTTTATTTATCTAATTGTACTCATTCTTTTTTGATG [XGTACX_site2876],11.4 ± 0.81
7,GCTAAAAGTATATGCACACACATATAGATGCACATA [CACACA_site6868],10.2 ± 0.24
8,ATTCTATATTTAAATGCATGCACTTTCTATTTTTTT [TGCATGCA_site435],9.955 ± 0.049
9,TTTAATTTGTTATACACACACAAAAAAAATTATAAA [CACACA_site3937],10.2 ± 0.3
10,CATACATAGAAACACACACACACACCCACCCACAAA [CACACA_site494],10.3 ± 0.21
11,AATGTGCCCACGCGTACACACAAAAAAAGAAAAAAA [CACACA_site2003],11.7 ± 1.1
12,TTTTAAAAAAAAAAAAAAAAAATTAAAATAATTCAA [TGCATGCA_negctrl_site69],9.08 ± 0.014
13,ATAAAATAATTAATGGGTACATAATTAAATAAAGAG [XGTACX_site3309],11.3 ± 0.66
14,GGATAAGATGTATATACACACAATTTAAAAAAATAA [CACACA_site910],10.1 ± 0.23
15,AAGATAGACTCATATGCATGCATTCACATACCAACA [TGCATGCA_site179],10.09 ± 0.064
16,TTAATATAGGAATATGCACACATATATACATACATA [CACACA_site8432],9.945 ± 0.064
17,AATACAATTTTTAACACACACACAATAATACAGATA [CACACA_site4823],10.2 ± 0.18
18,GTGTAATTTATTGTGTTGCACTTTTTTTTTTTTTTT [GTGCAC_site9644],10.6 ± 0.32
19,TACAATTTGATATATACACACAAATAAATTATGCTT [CACACA_site6534],9.98 ± 0.25
20,AAAAGTACAATATATATGTATGTGTATAGAATGGTT [TGCATGCA_negctrl_site76],11.1 ± 0.79
21,ATAATATTATACTTTGCACACATCTGAAATGACATA [CACACA_site3952],10.2 ± 0.18
22,GATAAAATAAAAGTGGGTACTTAAATATATATATAA [XGTACX_site8457],11.2 ± 0.67

row,Sequence,gcPBM binding intensity (ln)
1,TTTGATAAAATTGATATCCTATAATTATATAAATAA [GTGCAC_negctrl_site317],9.7 ± 0.028
2,AAAAAACAGACATACACACACACACCCATATATATA [CACACA_site3392],10 ± 0.11
3,AAAGAATTTAAATATTGTACGCAATATATAAAAAAA [XGTACX_site7616],11.5 ± 0.92
4,TAATATTATTATTTTACACACTTTTTTCCTTTTATC [CACACA_site2457],9.985 ± 0.049
5,ATATGAAGTTATATAGTGCACATGTACAACCAAATC [GTGCAC_site9974],11.6 ± 0.88
6,GATGTTCATCACTACACACACAAAGAAATATAAATA [CACACA_site7294],10.1 ± 0.27
7,TACCCAAAGTTACATACACACTAATATTTACACCAT [CACACA_site4709],10.1
8,TTCTATATATATATAGACAAACGATAAAATAAAAAA [GTGCAC_negctrl_site142],10.1 ± 0.23
9,TAATAATAGTGAGAGTGTACTTTAAATAAAATATAT [XGTACX_site2850],11.2 ± 0.83
10,AGAAAAGAAATTAGTTGTACTCTGATGAATTATCCT [XGTACX_site6284],11.3 ± 0.79
11,TAGATACATACACGCACACACATATATATATATATA [CACACA_site12],10.4 ± 0.34
12,ATCTTCAAAAATATTAGTACACATGTATCATGAATT [XGTACX_site3872],11.3 ± 0.93
13,CCACATTAAAAAAAAACACACATATATTATAGATAT [CACACA_site6662],9.94 ± 0.042
14,AATGTACGTTTTATAACACACACACTAATAAAAAAA [CACACA_site9286],11.3 ± 0.97
15,TAGTGATATAATTATGTGCACTTAATACAGGTCGAT,10.6 ± 0.42
16,TTTATTTGTAACGGTTGTACTTGTATATCATTATGA [XGTACX_site4281],11.4 ± 0.61
17,CACTAAAATAGACACACACACACACGGATATAAATA [CACACA_site7873],10.3 ± 0.23
18,CTTAAATTTAAGTTCACACATATTGGTCATTTATAT [CACACA_site5006],10.8 ± 0.44
19,ATGTATATATATATATGTACTAATTAGTAGTTTACG [XGTACX_site6272],11.1 ± 0.71
20,TGTATGTATAAAAACGCATGTATGTATTTTACAATA [TGCATGCA_site767],9.84
21,ATATATATACCAAGTAGTACATTCTACAACTAATGT [XGTACX_site8653],11.3 ± 0.7
22,GATATTTTTTTCGAAAGTACAAAAAAAAATATTTCC [XGTACX_site4389],11 ± 0.72

row,Sequence,gcPBM binding intensity (ln)
1,AAAATTAAAAATAACACACACATATATATATTTATA [CACACA_site2776],9.73 ± 0.13
2,ATACAGATATATAATACACACATAAATGTAACATTT [CACACA_site5864],10.055 ± 0.007
3,TACTAAGAATTAATATAACAAAATAAAAAAAAAAAA [XGTACX_negctrl_site346],9.66 ± 0.26
4,AATACATACATACATACACACATATAAATATATTAT [CACACA_site7650],10.2 ± 0.17
5,AAAAAAAAAAAACACACACACACAAATATATAAAAA [CACACA_site1171],9.98 ± 0.099
6,GTATAAAAGTTATATACACACAACAGAATTACATAT [CACACA_site6212],10.17 ± 0.071
7,TTTGAAAAAAATTAATGTACATTTGAAATGACATAT [XGTACX_site3902],10.8 ± 0.52
8,ATACCTTCTTTTATGTTTAATTAATATACTTTTTAT [CACACA_negctrl_site1557],10.01 ± 0.014
9,TTTTATTTAAATACACGTACATAATGTATATATATA [XGTACX_site7160],11.5 ± 0.93
10,TTTGCCCAAAAAGGTACACACCACAATGTACATAAA [CACACA_site4599],11.9 ± 1.1
11,TCATATATGGGTAGTATACACACTGTATATTTAGGA [CACACA_site2844],10.06 ± 0.071
12,GAACATTTCACACAAAAAAAAAAAAATATATATATA [TGCATGCA_negctrl_site518],9.68 ± 0.36
13,TCTTTTTAAATATATACACACCGTGTCTACAGATAC [CACACA_site5784],10.18 ± 0.071
14,ACATGATGTCATAAATGTACGCACACATACATAAAC [XGTACX_site1198],11.5 ± 0.93
15,TACTAATATAATAAAAGTACTTAAATAAATATATGT [XGTACX_site2220],11.3 ± 0.79
16,AATTATATGCTTAATACGCACACGGGAAAAAAAAAA [CACACA_site1376],10.5 ± 0.4
17,TCGTAATAATAGTTGAGTACGCACTAATATGTCAAT [XGTACX_site643],11.4 ± 0.82
18,TATTTACATTTTAGTAGTACATATATGTATATATAT [XGTACX_site6839],11.3 ± 0.79
19,TAAATAAAAAAAAATCGTACATATATTTTATATATG [XGTACX_site3293],11.1 ± 0.88
20,TTTTCAAAAATATACACACACATAAATATCTGTATA [CACACA_site4586],9.855 ± 0.035
21,TAATTATTTAAAAAGAGTACATTTTTTTTTTTTTTT [XGTACX_site1060],11.3 ± 0.78
22,ATAATTATTTAATATATATATATTATTTCGAATGTT [GTGCAC_negctrl_site688],9.715 ± 0.007
